Among all 48,000 compounds or so, about 550 (1.1%) were called active. Another 4% or so got no clear call; they are omitted. Cut-off read from the data, not from the text of the source: active = potency below about 15 µM; inconclusive = mostly about 16 µM to 33 µM; inactive = weaker than that. Some of the results follow.
Potency is the fitted concentration of half-maximal effect.

This experiment has as its target Lysosomal acid glucosylceramidase (Homo sapiens) (UniProt P04062). The experiment in a line: Glucocerebrosidase.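 Note: the screen sought inhibitors.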 Conditions: purified enzyme, resorufin glucoside fluorescence (screen aimed at inhibitors), 20 min. The source says: NCGC Assay Overview: Beta-glucocerebrosidase catalyzes the hydrolysis of beta-glucocerebroside to glucose and ceramide. The inherited deficiency of beta-glucocerebrosidase results in Gaucher disease, which is characterized by a wide variety of symptoms including hepatosplenomegaly, anemia, thrombocytopenia, bony lesions and bone marrow infiltration with characteristic storage cells, known as Gaucher cells. There are also forms of the disorder affecting the central nervous system. Patients with the same genotypes can manifest with diverse clinical presentations and it is believed that improper folding and trafficking of beta-glucocerbrosidase may contribute to the phenotypes observed. Low molecular weight molecules, acting as chaperones, may potentially restore trafficking of misfolded beta-glucocerebrosidase from the endoplasmic reticulum to the lysosomes, thereby enhancing functional lysosomal beta-glucocerebrosidase activity. Using normal beta-glucocerebrosidase, an assay was developed to screen for small molecule inhibitors that could potentially act as molecular chaperones on the mutant forms [developed with NIH investigator Dr. Ellen Sidransky's laboratory]. Two pro-fluorescent substrates were chosen for two screens against a small molecule library. One beta-glucocerebrosidase assay used Resorufin beta-D-Glucopyranoside (Marker Gene Technology Inc.), generating a red fluorescent product. The second assay used Fluorescein di-beta-D-Glucopyranoside, generating a blue fluorescent product. […] The IC50 values of Conduritol B Epoxide, a known glucocerebrosidase inhibitor, were determined to be 87.5 uM and 117 uM, respectively. The use of two difference pro-fluorescent substrates in the screens helped to eliminate false positives. All compounds were screened in a titration series resulting in AC50s (e.g., IC50s or EC50s).
Sequence of UniProt P04062 (P04062 whole entry, looked up): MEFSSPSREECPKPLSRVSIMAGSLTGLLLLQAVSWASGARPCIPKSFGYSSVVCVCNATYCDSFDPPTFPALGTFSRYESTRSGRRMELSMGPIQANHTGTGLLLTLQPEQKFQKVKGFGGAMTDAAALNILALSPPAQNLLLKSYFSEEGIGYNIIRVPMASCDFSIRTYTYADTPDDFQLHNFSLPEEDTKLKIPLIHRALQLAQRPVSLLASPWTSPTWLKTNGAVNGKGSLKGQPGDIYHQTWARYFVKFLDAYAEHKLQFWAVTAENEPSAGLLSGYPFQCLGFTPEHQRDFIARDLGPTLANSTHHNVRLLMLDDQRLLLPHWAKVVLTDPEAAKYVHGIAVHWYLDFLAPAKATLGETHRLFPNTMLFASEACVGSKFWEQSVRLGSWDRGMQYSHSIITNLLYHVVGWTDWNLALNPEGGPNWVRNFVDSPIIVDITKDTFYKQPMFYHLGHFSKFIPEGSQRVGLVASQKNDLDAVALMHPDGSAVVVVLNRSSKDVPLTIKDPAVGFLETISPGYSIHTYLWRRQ
NCGC Assay Protocol Summary: Both enzyme and substrate were diluted in buffer composed of 50mM citric acid/KH2PO4, 10mM sodium taurocholate and 0.01% tween-20 at pH 5.9. The final concentration of the enzyme was 0.2 nM in both assays. The compound library was titrated in 7 to 15 concentrations for the primary screens with a final concentration ranging from 0.6 nM to 50 uM. This particular assay protocol is for the "red" substrate, and it was performed in 1536-well plate format as follows: Red fluorescence substrate assay: 2 uL enzyme 23 nL compound 1 uL substrate (final concentration of 30 uM) Incubate at room temperature (RT) for 20 minutes Read the plate in Viewlux plate reader (Ex=548(7) and Em=600(10)).
`Cn1c(COc2ccc(Cl)cc2)nnc1SCC(=O)NC1CCCCC1`: the Potency is inactive: > 76.9 µM.

Consider `COc1ccc(C)cc1S(=O)(=O)N(C)CC(=O)NCc1ccco1`, for which the Potency is inactive: > 76.9 µM. The same measure for `COc1ccc(C2c3c(oc4ccc(C)cc4c3=O)C(=O)N2c2cc(C)ccn2)cc1OC` (stereo not drawn): inactive: > 76.9 µM. The same measure for `Cn1c(=O)oc2cc(S(=O)(=O)N3CCC(C(=O)Nc4ccc(OC(F)(F)F)cc4)CC3)ccc21`: inactive: > 76.9 µM; for `O=C(CN1CCN(c2ccc(F)cc2)CC1)NCC1CCCO1` (stereo not drawn): inactive: > 76.9 µM. The same measure for `O=C(O)c1cccc(N2C(=O)c3cccnc3C2=O)c1`: inactive: > 76.9 µM. Take `O=C(CC1C(=O)NCCN1C(=O)Nc1ccccc1)Nc1cccc(C(F)(F)F)c1` (stereo not drawn): the Potency was inactive: > 76.9 µM.

As to `CCc1cccc2c(C#N)cn(CC(=O)NCc3ccco3)c12`, the Potency was inactive: > 76.9 µM. The same measure for `Cc1ccc(SC/C(O)=C(\C#N)c2nc3ccccc3n2C)cc1`: inactive: > 76.9 µM. The same measure for `CC(NC(=O)c1cccs1)C(c1cccs1)N1CCN(Cc2ccccc2)CC1` (stereo not drawn): inactive: > 76.9 µM; for `C[N+](C)(C)CCNC(=O)c1c(O)c2c([nH]c1=O)CCCC2`: inactive: > 76.9 µM; for `COc1ccc2oc(=O)cc(C)c2c1`: inactive: > 76.9 µM.

Turning to `CCCCn1c(N)c(N(CCC(C)C)C(=O)CSc2nnc3ccccn23)c(=O)[nH]c1=O`, the Potency is inactive: > 76.9 µM. The same measure for `Cc1ccc(-c2noc(CCC(=O)N3CCCC3)n2)cc1`: inactive: > 76.9 µM; for `O=C(c1ccco1)N1CCN(c2ncnc3scc(-c4cccs4)c23)CC1`: inactive: > 76.9 µM; for `O=c1[nH]c(CN2CCN(C/C=C/c3ccccc3)CC2)nc2cc(Cl)ccc12`: inactive: > 76.9 µM.

Take `O=C(CCN1CCN(c2ccccn2)CC1)Nc1ccc(F)cc1`: the Potency is inactive: > 76.9 µM. The same measure for `CCCn1nc(C(=O)NCCN2CCOCC2)c2ccccc2c1=O`: “inactive”; for `Cn1cnnc1SCc1ccccc1Br`: inactive: > 76.9 µM. The same measure for `Cn1c(=O)c2c(nc(NCCNC(=O)c3ccco3)n2Cc2ccccc2Cl)n(C)c1=O`: inactive: > 76.9 µM; for `Cc1cccc2cc3c(NC(=O)CC(C)C)nn(C)c3nc12`: inactive: > 76.9 µM; for `CN1CCN(Cc2nc3c(c(=O)n(C)c(=O)n3C)n2CCCc2ccccc2)CC1`: inactive: > 76.9 µM. Take `O=C(Cc1c(F)cccc1Cl)N1CCN(C(=O)c2ccco2)CC1`: the Potency is inactive: > 76.9 µM. As for `Cc1nc(-c2ccc(C(=O)O)cc2)cs1`, the Potency was inactive: > 76.9 µM. The same measure for `O=C(COc1cccc(-n2cnnn2)c1)NCCC1=CCCCC1`: inactive: > 76.9 µM; for `O=c1cnnc(SCCc2ccccc2)[nH]1`: inactive: > 76.9 µM.

With `CCCn1nnc(NC(=O)c2ccc(Br)cc2)n1`, the Potency was inactive: > 76.9 µM. The same measure for `CCC(C)NC(=O)C1CCN(S(=O)(=O)c2cccnc2)CC1` (stereo not drawn): inactive: > 76.9 µM; for `CN(Cc1ccccc1)Cc1nc2c(c(=O)n(C)c(=O)n2C)n1Cc1ccc(F)cc1`: inactive: > 76.9 µM; for `CSc1ncccc1C(=O)OCn1nnc2ccccc2c1=O`: inactive: > 76.9 µM. As to `COc1ccc(O)c(-c2[nH]ncc2C(=O)c2ccccc2C)c1`, the Potency is inactive: > 76.9 µM. The same measure for `Cc1cc(C)n(-c2nc3ccccc3n3cnnc23)n1`: inactive: > 76.9 µM.

As for `CCCCn1c(CN(C)Cc2ccccc2)nc2c1c(=O)n(C)c(=O)n2C`, the Potency is inactive: > 76.9 µM. On to `Cc1ccc(-c2csc(N(CC3CCCO3)C(=O)c3ccco3)n2)cc1` (stereo not drawn), for which the Potency is inactive: > 76.9 µM.

Turning to `CC1CN(Cc2nc3c(c(=O)n(C)c(=O)n3C)n2CCCO)CC(C)O1` (stereo not drawn), the Potency was inactive: > 76.9 µM. The same measure for `CN(C)c1ccc(C2N(C(=O)N3CCOCC3)CCN2S(=O)(=O)c2ccccc2)cc1` (stereo not drawn): inactive: > 76.9 µM. The same measure for `COc1cccc(C(=O)N2CCCc3ccccc32)c1`: inactive: > 76.9 µM; for `Cc1ccc(NCc2nnc3n2CCCCC3)cc1`: inactive: > 76.9 µM; for `c1csc(-c2nn3c(-c4ccncc4)nnc3s2)c1`: inactive: > 76.9 µM. The same measure for `CC1(C)COCN1S(=O)(=O)c1ccc(C(=O)Nc2nnc(-c3ccc(Cl)s3)o2)cc1`: inactive: > 76.9 µM; for `Cc1cc(C(=O)CSc2nnc(Cc3ccccc3)o2)c(C)n1Cc1ccc2c(c1)OCO2`: active: 3.97 µM. For `Cc1cccc(OCC(=O)Nc2ccccc2N2CCN(C(=O)C(C)C)CC2)c1C`, the Potency was inactive: > 76.9 µM.

Consider `O=C(NCCN1CCN(C(=O)c2cc3ccccc3oc2=O)CC1)c1cc2ccccc2oc1=O`, for which the Potency was inactive: > 76.9 µM. The same measure for `Cc1cc(NC(=O)c2sc(Nc3cccc(C(F)(F)F)c3)nc2N)no1`: active: 11.8 µM; for `COc1ccc(C)cc1NS(=O)(=O)c1cccc2nonc12`: inactive: > 76.9 µM; for `O=C1CC(c2ccc(F)cc2)Cc2nc(N3CCc4ccccc43)ncc21` (stereo not drawn): inactive: > 76.9 µM. The same measure for `Cc1sc2ncn3c(C)nnc3c2c1C`: inactive: > 76.9 µM; for `COc1cccc(CNC(=O)CCS(=O)(=O)c2cccc3nsnc23)c1`: inactive: > 76.9 µM; for `O=C(Cn1nc(C(F)(F)F)c2c1CCCC2)NC1CCCC1`: inactive: > 76.9 µM. The same measure for `CCCCCC(=O)Nc1cccc(-c2nc3ncccc3o2)c1`: “inactive”. In the case of `Cc1noc(C)c1C(=O)N1CCc2ccccc21`, the Potency is inactive: > 76.9 µM. The same measure for `COc1ccc(N2C(=O)NC3CC2(C)Oc2ccc(Cl)cc23)cc1OC` (stereo not drawn): inactive: > 76.9 µM. The same measure for `COc1ccc2nc(NC3=NCCC3)sc2c1`: inactive: > 76.9 µM. The same measure for `Cc1ccc(C2C3=C(CC(C)(C)CC3=O)N(CCN3CCOCC3)C3=C2C(=O)CC(C)(C)C3)cc1`: inactive: > 76.9 µM; for `CC(C)(C)NC(=O)Nc1ccccc1C(N)=O`: inactive: > 76.9 µM; for `O=C(CSc1ccccc1)N1CCN(c2ccccc2)CC1`: inactive: > 76.9 µM. `Cc1ccc(Nc2cccccc2=O)cc1`: the Potency was inactive: > 76.9 µM. As for `COc1ccc(-c2ccc(=O)n(CC(=O)NCc3ccco3)n2)cc1`, the Potency was inactive: > 76.9 µM.

Turning to `Cc1cnc(C)c(N2CCC(C(=O)NCc3ccco3)CC2)n1`, the Potency was inactive: > 76.9 µM.

Take `CCN1C(=O)C2C(c3cccc(F)c3)NC(C)(C(=O)OC)C2C1=O` (stereo not drawn): the Potency is inactive: > 76.9 µM. The same measure for `Cc1occc1-c1nnc(SCC(=O)Nc2ccc3c(c2)OCO3)n1CC1CCCO1` (stereo not drawn): inactive: > 76.9 µM; for `CCOC(=O)c1cc(C#N)c(SCc2ccc(C#N)cc2)nc1C`: inactive: > 76.9 µM.

As to `O=C(Nc1c2c(nn1-c1ccc(F)cc1)CS(=O)C2)C12CC3CC(CC(C3)C1)C2` (stereo not drawn), the Potency is inactive: > 76.9 µM. The same measure for `Cc1ccc(CN2CC(C(=O)Nc3ccc4c(C)cc(=O)oc4c3)CC2=O)cc1` (stereo not drawn): inactive: > 76.9 µM. As to `Cc1cc(NC(=O)C2CCCC2)nc2c1c(=O)oc1ccccc12`, the Potency is inactive: > 76.9 µM. For `CCCNS(=O)(=O)c1ccc(OCC(=O)NCCCOC)cc1`, the Potency was inactive: > 76.9 µM.

Turning to `O=C(CSc1nc2c(cnn2-c2ccccc2)c(=O)[nH]1)c1ccc(Cl)cc1`, the Potency was inactive: > 76.9 µM. The same measure for `O=C(O)c1cc(Cl)c2ccccc2c1O`: inactive: > 76.9 µM; for `COc1cc(NC(=O)c2cc(-n3cnnc3)ccc2Cl)cc(OC)c1`: inactive: > 76.9 µM. The same measure for `O=C(CCNS(=O)(=O)c1ccc(Cl)cc1)NCc1ccccn1`: inactive: > 76.9 µM. With `CCCc1ccc(C(=O)N2CCN(c3ccccc3OCC)CC2)cc1`, the Potency result is “inactive”. The same measure for `COc1ccc(CCNC(=O)C2CCN(Cc3nc(-c4ccc(Cl)cc4)oc3C)CC2)cc1OC`: inactive: > 76.9 µM. The same measure for `FC(F)Oc1ccc(-c2csc(Cc3nnc4n3CCCCC4)n2)cc1`: inactive: > 76.9 µM; for `C=CCn1c(=O)c2c(nc3n2CCS3)n(C)c1=O`: inactive: > 76.9 µM; for `Cc1cc(C)n(C(=O)c2cc3sccc3[nH]2)n1`: inactive: > 76.9 µM. In the case of `Cn1c(=O)c2c(nc(CN3CCOCC3)n2CCCc2ccccc2)n(C)c1=O`, the Potency was inactive: > 76.9 µM. The same measure for `O=C(CC1NC(=O)NC1=O)Nc1cccc2ccccc12` (stereo not drawn): inactive: > 76.9 µM.

For `COc1ccccc1NC(=O)CSc1nnc(-c2ccccn2)n1Cc1ccco1`, the Potency is inactive: > 76.9 µM. The same measure for `Cc1nnc(SCC(=O)N2CCN(S(=O)(=O)c3ccc(Cl)cc3)CC2)[nH]c1=O`: inactive: > 76.9 µM; for `COc1ccc(C)cc1-n1nnnc1SCc1csc(C)n1`: inactive: > 76.9 µM. The same measure for `O=C(NCCC1=CCCCC1)C1CCN(S(=O)(=O)c2cccc3nsnc23)CC1`: inactive: > 76.9 µM; for `Cc1cc(C(F)F)n2nc(C(=O)Nc3ccccc3Br)nc2n1`: inactive: > 76.9 µM; for `CCOCCCNS(=O)(=O)c1ccc2c(c1)CCN2C(=O)CC`: inactive: > 76.9 µM. The same measure for `O=C(CN1CCOCC1)Nc1cccc(Br)c1`: inactive: > 76.9 µM. As to `COC(=O)c1ccccc1NC(=O)CSc1nccn1C`, the Potency is inactive: > 76.9 µM. The same measure for `CC(=O)c1cc2c(cc1NC(=O)CN1CCN(c3ccc(F)cc3)CC1)OCO2`: inactive: > 76.9 µM. The same measure for `CCOC(=O)NC(CC(=O)O)c1ccc(OCC)cc1` (stereo not drawn): inactive: > 76.9 µM; for `CN(C)c1ccc(C2OC(=O)C3(CCCC3)C(=O)C2(C)C)cc1` (stereo not drawn): inactive: > 76.9 µM. The same measure for `c1nnc2c3c4c(sc3ncn12)CCCC4`: inactive: > 76.9 µM; for `COc1ccccc1NC(=O)CC1Nc2ccccc2NC1=O` (stereo not drawn): inactive: > 76.9 µM; for `O=P1(O)C=C(c2ccccc2)OC(c2ccccc2)=C1`: inactive: > 76.9 µM.

Turning to `C=CCN1C(=O)CSc2ccc(C(=O)NCc3ccco3)cc21`, the Potency is inactive: > 76.9 µM. The same measure for `O=C(CCn1c(=O)c2sccc2n(Cc2cc(=O)n3ccccc3n2)c1=O)NCc1ccco1`: inactive: > 76.9 µM.

Source of the values: PubChem BioAssay AID360 (National Center for Advancing Translational Sciences (NCATS), 2006).
